In the supplement of paper PMC9151546:
Most values come without repeats; read them as rough.

Experiments:
[1] = system: CHO-K1; experiment: micronucleus frequency (% of nucleated events); higher = more micronuclei (genotoxic)
[2] = system: CHO-K1; experiment: hypodiploid nuclei frequency (% of nucleated events); higher = more hypodiploid events (aneugenic)
Method: (§1)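 Flow-cytometric in vitro micronucleus assay (Litron MicroFlow) in CHO-K1 cells in 96-well plates, 19 concentrations (4.5-200 µM, n=1 per concentration). Without S9, cells were exposed for 24 h and sampled at 48 h. With Aroclor 1254-induced rat liver S9, cells were exposed for 3-4 h and sampled at 27-28 h. Read-outs are %MN and %hypodiploid nuclei relative to nucleated events, and relative survival as the nuclei-to-bead ratio versus the 1% DMSO vehicle control (x100).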

[3] = system: CHO-K1; experiment: relative survival (nuclei to bead ratio vs DMSO control) (% of vehicle control); higher = more surviving cells
Method: as §1
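Throughout, for hypodiploid nuclei frequency (% of nucleated events): hypodiploid nuclei gated on a flow cytometer with 488 nm excitation after SYTOX Green staining, cultures at 37 °C, positive controls vinblastine without S9 and cyclophosphamide with S9.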
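Throughout, for micronucleus frequency (% of nucleated events): cells lysed with nuclei stained by SYTOX Green, then micronucleus-gated events counted against nucleated events by flow cytometry with 488 nm excitation.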
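Throughout, for relative survival (nuclei to bead ratio vs DMSO control): Lysed-cell nuclei stained with SYTOX Green and counted against counting beads by flow cytometry at 488 nm excitation, with vinblastine (no S9) and cyclophosphamide (plus S9) as positive controls.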

Oc1ccc(Cl)cc1Cc1ccccc1 [Clorophene]
Details | hypodiploid nuclei frequency, [2] [%] | micronucleus frequency, [1] [%] | relative survival, [3]
concentration: 4.46 (µM), S9 metabolic activation: with S9, exposure time: 3-4 hours | 0.16 | 1.38 | 181
concentration: 4.46 (µM), S9 metabolic activation: without S9, exposure time: 24 hours | 0.6 | 1.98 | 109
concentration: 5.57 (µM), S9 metabolic activation: with S9, exposure time: 3-4 hours | 0.16 | 1.34 | 144
concentration: 5.57 (µM), S9 metabolic activation: without S9, exposure time: 24 hours | 0.48 | 2.12 | 117
concentration: 6.97 (µM), S9 metabolic activation: with S9, exposure time: 3-4 hours | 0.28 | 1.8 | 142
concentration: 6.97 (µM), S9 metabolic activation: without S9, exposure time: 24 hours | 0.72 | 1.98 | 100
concentration: 8.71 (µM), S9 metabolic activation: with S9, exposure time: 3-4 hours | 0.16 | 1.3 | 133
concentration: 8.71 (µM), S9 metabolic activation: without S9, exposure time: 24 hours | 0.48 | 1.88 | 97.1
concentration: 10.9 (µM), S9 metabolic activation: with S9, exposure time: 3-4 hours | 0.2 | 1.64 | 112
concentration: 10.9 (µM), S9 metabolic activation: without S9, exposure time: 24 hours | 0.64 | 2.08 | 107
concentration: 13.6 (µM), S9 metabolic activation: with S9, exposure time: 3-4 hours | 0.24 | 1.32 | 147
concentration: 13.6 (µM), S9 metabolic activation: without S9, exposure time: 24 hours | 0.76 | 2.46 | 90.4
concentration: 17 (µM), S9 metabolic activation: with S9, exposure time: 3-4 hours | 0.16 | 1.68 | 120
concentration: 17 (µM), S9 metabolic activation: without S9, exposure time: 24 hours | 0.88 | 2.42 | 99
concentration: 21.3 (µM), S9 metabolic activation: with S9, exposure time: 3-4 hours | 0.18 | 1.56 | 111
concentration: 21.3 (µM), S9 metabolic activation: without S9, exposure time: 24 hours | 0.6 | 2.94 | 99.9
concentration: 26.6 (µM), S9 metabolic activation: with S9, exposure time: 3-4 hours | 0.44 | 1.84 | 174
concentration: 26.6 (µM), S9 metabolic activation: without S9, exposure time: 24 hours | 0.9 | 1.22 | 87.4
concentration: 33.2 (µM), S9 metabolic activation: with S9, exposure time: 3-4 hours | 0.36 | 1.52 | 154
concentration: 33.2 (µM), S9 metabolic activation: without S9, exposure time: 24 hours | 0.5 | 2.02 | 99
concentration: 41.5 (µM), S9 metabolic activation: with S9, exposure time: 3-4 hours | 0.34 | 1.6 | 107
concentration: 41.5 (µM), S9 metabolic activation: without S9, exposure time: 24 hours | 0.68 | 1.58 | 79.1
concentration: 51.9 (µM), S9 metabolic activation: with S9, exposure time: 3-4 hours | 0.44 | 2.32 | 95.9
concentration: 51.9 (µM), S9 metabolic activation: without S9, exposure time: 24 hours | 0.78 | 1.34 | 76.5
concentration: 64.9 (µM), S9 metabolic activation: with S9, exposure time: 3-4 hours | 0.26 | 2.06 | 112
concentration: 64.9 (µM), S9 metabolic activation: without S9, exposure time: 24 hours | 0.86 | 1.62 | 65.9
concentration: 81.1 (µM), S9 metabolic activation: with S9, exposure time: 3-4 hours | 0.24 | 2.16 | 75
concentration: 81.1 (µM), S9 metabolic activation: without S9, exposure time: 24 hours | 1.06 | 1.06 | 60.4
concentration: 101 (µM), S9 metabolic activation: with S9, exposure time: 3-4 hours | 0.32 | 1.7 | 79.2
concentration: 101 (µM), S9 metabolic activation: without S9, exposure time: 24 hours | 1.1 | 1.76 | 58.7
concentration: 127 (µM), S9 metabolic activation: with S9, exposure time: 3-4 hours | – | – | 20
concentration: 127 (µM), S9 metabolic activation: without S9, exposure time: 24 hours | 1.27 | 1.95 | 43.4
concentration: 158 (µM), S9 metabolic activation: with S9, exposure time: 3-4 hours | – | – | 0.29
concentration: 158 (µM), S9 metabolic activation: without S9, exposure time: 24 hours | – | – | 30.8
concentration: 198 (µM), S9 metabolic activation: without S9, exposure time: 24 hours | – | – | 9.58

Cc1ccc(O)c(C)c1 [2,4-Dimethylphenol]
Details | hypodiploid nuclei frequency, [2] [%] | micronucleus frequency, [1] [%] | relative survival, [3]
concentration: 4.46 (µM), S9 metabolic activation: with S9, exposure time: 3-4 hours | 0.08 | 1.22 | 78.1
concentration: 4.46 (µM), S9 metabolic activation: without S9, exposure time: 24 hours | 0.48 | 1.82 | 93
concentration: 5.57 (µM), S9 metabolic activation: with S9, exposure time: 3-4 hours | 0.22 | 1.32 | 76.7
concentration: 5.57 (µM), S9 metabolic activation: without S9, exposure time: 24 hours | 0.48 | 1.54 | 108
concentration: 6.97 (µM), S9 metabolic activation: with S9, exposure time: 3-4 hours | 0.32 | 2.18 | 76.4
concentration: 6.97 (µM), S9 metabolic activation: without S9, exposure time: 24 hours | 0.42 | 1.5 | 95.7
concentration: 8.71 (µM), S9 metabolic activation: with S9, exposure time: 3-4 hours | 0.2 | 1.38 | 106
concentration: 8.71 (µM), S9 metabolic activation: without S9, exposure time: 24 hours | 0.44 | 1.72 | 106
concentration: 10.9 (µM), S9 metabolic activation: with S9, exposure time: 3-4 hours | 0.32 | 1.34 | 81.4
concentration: 10.9 (µM), S9 metabolic activation: without S9, exposure time: 24 hours | 0.52 | 2.2 | 86.5
concentration: 13.6 (µM), S9 metabolic activation: with S9, exposure time: 3-4 hours | 0.26 | 1.78 | 96
concentration: 13.6 (µM), S9 metabolic activation: without S9, exposure time: 24 hours | 0.52 | 2.54 | 91.6
concentration: 17 (µM), S9 metabolic activation: with S9, exposure time: 3-4 hours | 0.36 | 2.72 | 102
concentration: 17 (µM), S9 metabolic activation: without S9, exposure time: 24 hours | 0.6 | 2.28 | 78.8
concentration: 21.3 (µM), S9 metabolic activation: with S9, exposure time: 3-4 hours | 0.36 | 1.28 | 128
concentration: 21.3 (µM), S9 metabolic activation: without S9, exposure time: 24 hours | 0.38 | 1.84 | 95.7
concentration: 26.6 (µM), S9 metabolic activation: with S9, exposure time: 3-4 hours | 0.36 | 1.7 | 81.4
concentration: 26.6 (µM), S9 metabolic activation: without S9, exposure time: 24 hours | 0.5 | 1.96 | 82.6
concentration: 33.2 (µM), S9 metabolic activation: with S9, exposure time: 3-4 hours | 0.24 | 1.88 | 88.3
concentration: 33.2 (µM), S9 metabolic activation: without S9, exposure time: 24 hours | 0.5 | 1.74 | 84.1
concentration: 41.5 (µM), S9 metabolic activation: with S9, exposure time: 3-4 hours | 0.26 | 2.18 | 76.7
concentration: 41.5 (µM), S9 metabolic activation: without S9, exposure time: 24 hours | 0.76 | 1.78 | 88.2
concentration: 51.9 (µM), S9 metabolic activation: with S9, exposure time: 3-4 hours | 0.12 | 1.18 | 92.6
concentration: 51.9 (µM), S9 metabolic activation: without S9, exposure time: 24 hours | 0.68 | 1.7 | 72.7
concentration: 64.9 (µM), S9 metabolic activation: with S9, exposure time: 3-4 hours | 0.3 | 1.7 | 78.7
concentration: 64.9 (µM), S9 metabolic activation: without S9, exposure time: 24 hours | 0.78 | 2.4 | 82.6
concentration: 81.1 (µM), S9 metabolic activation: with S9, exposure time: 3-4 hours | 0.56 | 3.18 | 74
concentration: 81.1 (µM), S9 metabolic activation: without S9, exposure time: 24 hours | 0.68 | 2.8 | 65.1
concentration: 101 (µM), S9 metabolic activation: with S9, exposure time: 3-4 hours | 0.24 | 2.2 | 81.8
concentration: 101 (µM), S9 metabolic activation: without S9, exposure time: 24 hours | 0.96 | 2.86 | 64.2
concentration: 127 (µM), S9 metabolic activation: with S9, exposure time: 3-4 hours | 0.22 | 2.12 | 83.7
concentration: 127 (µM), S9 metabolic activation: without S9, exposure time: 24 hours | 1.3 | 3.36 | 56.5
concentration: 158 (µM), S9 metabolic activation: with S9, exposure time: 3-4 hours | 0.28 | 1.9 | 89.4
concentration: 158 (µM), S9 metabolic activation: without S9, exposure time: 24 hours | 1.3 | 4 | 58.8
concentration: 198 (µM), S9 metabolic activation: with S9, exposure time: 3-4 hours | 0.16 | 1.54 | 76.4
concentration: 198 (µM), S9 metabolic activation: without S9, exposure time: 24 hours | 1.7 | 4.14 | 56.8
